Test results published in the supplement of paper PMC10320760.
This is a noisy data set.

B1: Ydj1; a variant is named by its letters at X, in order (parent)
chain: MVKETKFYDILGVPVTATDVEIKKAYRKCALKYHPDKNPSEEAAEKFKEASAAYEILSDPEKRDIYDQFGEDGLSGAGGAGGFPGGGFGFGDDIFSQFFGAGGAQRPRGPQRGKDIKHEISASLEELYKGRTAKLALNKQILCKECEGRGGKKGAVKKCTSCNGQGIKFVTRQMGPMIQRFQTECDVCHGTGDIIDPKDRCKSCNGKKVENERKILEVHVEPGMKDGQRIVFKGEADQAPDVIPGDVVFIVSERPHKSFKRDGDDLVYEAEIDLLTAIAGGEFALEHVSGDWLKVGIVPGEVIAPGMRKVIEGKGMPIPKYGGYGNLIIKFTIKFPENHFTSEENLKKLEEILPPRIVPAIPKKATVDECVLADFDPAKYNRTRASRGGANYDSDEEEQGGEGVQCXXX

Variants of: B1
Test: enrichment factor, frequency at 37 °C / frequency at 25 °C (thermotolerance selection) (ratio); higher = more growth at 37 °C, higher likelihood of farnesylation
Settings: with Saccharomyces cerevisiae ydj1Δ (yWS304); selective temperature 37 °C; reference temperature 25 °C
Work on DQC yielded an enrichment factor of 1.15.
For DQQ, the enrichment factor was 1.71.
For GQA, the enrichment factor was 1.83.
Variant GQI has an enrichment factor of 0.868.
GQD was tested, and the enrichment factor was 0.17.
GQP showed an enrichment factor of 0.134.
With GQR the enrichment factor was 0.139.
Work on GQE yielded an enrichment factor of 0.192.
GQG gave an enrichment factor of 1.11.
In the case of GQC, the enrichment factor is reported as 1.56.
GQQ gave an enrichment factor of 1.53.
In the case of GQN, the enrichment factor is reported as 1.49.
Variant GQM has an enrichment factor of 1.17.
GQL was tested, and the enrichment factor was 0.546.
In the case of GQS, the enrichment factor is reported as 1.71.
GQK showed an enrichment factor of 0.121.
GQH gave an enrichment factor of 0.457.
For GQF, the enrichment factor was 2.02.
HPY showed an enrichment factor of 1.81.
Work on KPY yielded an enrichment factor of 1.68.
PQK was tested, and the enrichment factor was 0.149.
In the case of PQF, the enrichment factor is reported as 1.34.
PQG was tested, and the enrichment factor was 1.73.
PQE gave an enrichment factor of 1.44.
Work on PQH yielded an enrichment factor of 1.55.
PQI gave an enrichment factor of 1.3.
PQS showed an enrichment factor of 2.01.
Variant PQP has an enrichment factor of 0.171.
In the case of PQQ, the enrichment factor is reported as 1.68.
PQC was tested, and the enrichment factor was 1.71.
With PQM the enrichment factor was 1.44.
With PQD the enrichment factor was 1.2.
Variant PQR has an enrichment factor of 0.12.
PQN gave an enrichment factor of 1.5.
Work on PQL yielded an enrichment factor of 1.73.
Variant PQA has an enrichment factor of 1.68.
CQK gave an enrichment factor of 0.566.
CQA gave an enrichment factor of 2.99.
Variant CQI has an enrichment factor of 0.405.
Variant CQH has an enrichment factor of 1.18.
Work on CQD yielded an enrichment factor of 1.12.
In the case of CQN, the enrichment factor is reported as 1.69.
Work on CQM yielded an enrichment factor of 1.11.
Variant CQP has an enrichment factor of 0.814.
CQF showed an enrichment factor of 0.558.
CQC showed an enrichment factor of 0.753.
In the case of CQG, the enrichment factor is reported as 1.46.
For CQS, the enrichment factor was 2.22.
CQE gave an enrichment factor of 1.61.
CQL was tested, and the enrichment factor was 1.25.
CQR gave an enrichment factor of 0.165.
CQQ showed an enrichment factor of 1.52.
For WQI, the enrichment factor was 1.58.
For WQH, the enrichment factor was 1.48.
Work on WQL yielded an enrichment factor of 1.82.
WQS was tested, and the enrichment factor was 1.97.
WQN gave an enrichment factor of 1.77.
In the case of WQR, the enrichment factor is reported as 0.183.
With WQG the enrichment factor was 1.68.
With WQA the enrichment factor was 2.12.
For WQE, the enrichment factor was 1.35.
For WQM, the enrichment factor was 2.22.
WQP showed an enrichment factor of 1.62.
With WQC the enrichment factor was 0.698.
Work on WQK yielded an enrichment factor of 0.204.
WQF showed an enrichment factor of 1.64.
With WQD the enrichment factor was 0.746.
In the case of WQQ, the enrichment factor is reported as 2.18.
For RPY, the enrichment factor was 1.92.
For RQS, the enrichment factor was 1.9.
In the case of RQM, the enrichment factor is reported as 1.86.
In the case of RQD, the enrichment factor is reported as 1.69.
With RQF the enrichment factor was 2.78.
With RQL the enrichment factor was 1.47.
RQP was tested, and the enrichment factor was 0.153.
RQE showed an enrichment factor of 1.3.
RQQ showed an enrichment factor of 1.57.
RQK gave an enrichment factor of 0.38.
RQH showed an enrichment factor of 1.54.
With RQR the enrichment factor was 0.162.
In the case of RQC, the enrichment factor is reported as 1.63.
RQN showed an enrichment factor of 1.6.
Variant RQG has an enrichment factor of 1.45.
RQI showed an enrichment factor of 1.36.
RQA was tested, and the enrichment factor was 1.55.
VQQ gave an enrichment factor of 1.87.
VQF showed an enrichment factor of 3.78.
For VQP, the enrichment factor was 0.134.
VQE was tested, and the enrichment factor was 1.3.
Work on VQH yielded an enrichment factor of 2.3.
VQA was tested, and the enrichment factor was 1.84.
Work on VQN yielded an enrichment factor of 1.27.
For VQI, the enrichment factor was 2.9.
VQR gave an enrichment factor of 0.135.
With VQL the enrichment factor was 2.33.
For VQM, the enrichment factor was 1.95.
Work on VQG yielded an enrichment factor of 1.61.
In the case of VQK, the enrichment factor is reported as 1.04.
VQS gave an enrichment factor of 1.69.
VQD gave an enrichment factor of 1.43.
Work on VQC yielded an enrichment factor of 3.31.
With SPY the enrichment factor was 2.02.
IQI showed an enrichment factor of 2.19.
Variant IQD has an enrichment factor of 1.28.
Variant IQK has an enrichment factor of 1.19.
IQE was tested, and the enrichment factor was 1.32.
For IQC, the enrichment factor was 1.93.
IQN gave an enrichment factor of 1.34.
In the case of IQA, the enrichment factor is reported as 1.49.
For IQP, the enrichment factor was 0.11.
Variant IQR has an enrichment factor of 0.132.
In the case of IQG, the enrichment factor is reported as 1.39.
Variant IQS has an enrichment factor of 1.46.
IQH showed an enrichment factor of 1.36.
In the case of IQL, the enrichment factor is reported as 2.84.
IQM was tested, and the enrichment factor was 1.81.
With IQQ the enrichment factor was 1.41.
In the case of IQF, the enrichment factor is reported as 2.34.
EQI showed an enrichment factor of 1.46.
In the case of EQQ, the enrichment factor is reported as 1.6.
EQL showed an enrichment factor of 1.14.
Variant EQM has an enrichment factor of 1.87.
Work on EQG yielded an enrichment factor of 0.781.
EQR showed an enrichment factor of 0.161.
EQP showed an enrichment factor of 0.121.
Work on EQF yielded an enrichment factor of 1.43.
With EQA the enrichment factor was 1.33.
EQC gave an enrichment factor of 1.81.
With EQK the enrichment factor was 0.165.
In the case of EQS, the enrichment factor is reported as 1.71.
In the case of EQH, the enrichment factor is reported as 0.989.
EQE showed an enrichment factor of 0.239.
With EQD the enrichment factor was 0.225.
With EQN the enrichment factor was 1.18.
In the case of HQN, the enrichment factor is reported as 1.64.
HQR was tested, and the enrichment factor was 0.141.
HQP was tested, and the enrichment factor was 1.24.
With HQF the enrichment factor was 2.22.
For HQI, the enrichment factor was 1.84.
HQD showed an enrichment factor of 0.909.
For HQG, the enrichment factor was 1.5.
HQL gave an enrichment factor of 1.88.
HQQ showed an enrichment factor of 1.72.
In the case of HQH, the enrichment factor is reported as 1.85.
HQC gave an enrichment factor of 2.93.
For HQK, the enrichment factor was 0.132.
Work on HQA yielded an enrichment factor of 1.74.
HQS gave an enrichment factor of 2.09.
Variant HQE has an enrichment factor of 0.86.
With HQM the enrichment factor was 1.49.
Variant LPY has an enrichment factor of 2.04.
Work on AQC yielded an enrichment factor of 1.77.
Variant AQQ has an enrichment factor of 1.51.
Work on AQS yielded an enrichment factor of 2.07.
Variant AQK has an enrichment factor of 0.627.
For AQI, the enrichment factor was 1.62.
For AQP, the enrichment factor was 0.0937.
Variant AQL has an enrichment factor of 1.94.
In the case of AQH, the enrichment factor is reported as 1.41.
Work on AQG yielded an enrichment factor of 1.26.
AQD showed an enrichment factor of 1.75.
With AQM the enrichment factor was 1.73.
In the case of AQN, the enrichment factor is reported as 1.49.
With AQR the enrichment factor was 0.245.
AQA gave an enrichment factor of 1.38.
With AQE the enrichment factor was 1.59.
With AQF the enrichment factor was 1.43.
